In all, about 310,000 compounds went through this assay and about 2,200 (0.71%) showed an effect of 50% or more. Effects have a minus sign here. The list shows a part of the results.
The molecules below were run against human ether-à-go-go-related gene (hERG) potassium channel (human, UniProt Q12809) (assay: primary screen, population patch clamp on CHO cells stably expressing hERG).
Chain of human ether-à-go-go-related gene (hERG) potassium channel (Q12809 whole entry, looked up): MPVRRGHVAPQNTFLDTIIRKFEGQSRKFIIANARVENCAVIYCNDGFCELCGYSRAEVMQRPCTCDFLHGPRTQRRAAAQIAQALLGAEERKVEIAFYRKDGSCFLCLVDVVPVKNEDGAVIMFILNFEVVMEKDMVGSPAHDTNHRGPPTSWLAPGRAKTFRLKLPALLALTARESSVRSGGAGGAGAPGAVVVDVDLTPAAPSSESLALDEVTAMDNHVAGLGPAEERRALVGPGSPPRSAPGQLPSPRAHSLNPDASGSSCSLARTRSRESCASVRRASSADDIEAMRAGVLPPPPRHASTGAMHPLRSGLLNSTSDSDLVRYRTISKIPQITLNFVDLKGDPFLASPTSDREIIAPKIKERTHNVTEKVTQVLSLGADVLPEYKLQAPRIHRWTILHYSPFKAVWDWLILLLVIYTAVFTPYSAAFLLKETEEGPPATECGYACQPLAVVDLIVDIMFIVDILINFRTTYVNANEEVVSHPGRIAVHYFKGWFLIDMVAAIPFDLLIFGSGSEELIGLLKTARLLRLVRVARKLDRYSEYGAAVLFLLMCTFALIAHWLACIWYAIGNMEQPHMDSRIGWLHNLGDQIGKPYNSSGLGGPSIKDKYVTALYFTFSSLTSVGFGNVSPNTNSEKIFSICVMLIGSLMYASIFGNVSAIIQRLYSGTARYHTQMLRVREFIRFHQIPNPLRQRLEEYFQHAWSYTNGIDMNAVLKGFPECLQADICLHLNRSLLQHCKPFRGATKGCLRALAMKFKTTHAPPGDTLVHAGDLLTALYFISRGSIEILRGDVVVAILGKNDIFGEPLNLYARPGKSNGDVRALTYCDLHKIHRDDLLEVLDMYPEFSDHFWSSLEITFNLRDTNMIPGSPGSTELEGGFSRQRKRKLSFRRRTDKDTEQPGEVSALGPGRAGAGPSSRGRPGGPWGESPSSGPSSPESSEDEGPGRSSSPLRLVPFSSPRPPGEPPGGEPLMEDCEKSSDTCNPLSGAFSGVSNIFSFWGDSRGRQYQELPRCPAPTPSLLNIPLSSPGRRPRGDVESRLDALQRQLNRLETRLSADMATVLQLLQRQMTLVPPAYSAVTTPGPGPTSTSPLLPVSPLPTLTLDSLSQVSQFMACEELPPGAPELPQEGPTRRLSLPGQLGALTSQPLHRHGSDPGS

| Structure (SMILES) | hERG current change (%, negative = inhibition) at 1uM [%] |
| --- | --- |
| CC1CCC(N(C)C2CCN(C)CC2)CC1 (stereo not drawn) | 10.1 |
| Cc1nn(-c2ccccc2)c(C)c1-c1nnc(C(F)(F)F)o1 | 11.5 |
| CCc1c(O)nc(SCC(=O)Nc2ccc(C)cc2)n(C2CCCCC2)c1=O | 12 |
| CO/N=C(\Cn1ncc(N2CCCC2)c(Cl)c1=O)c1ccc(Cl)cc1 | 11.1 |
| COCC(=O)Nc1ccc(S(=O)(=O)NCC2CCCO2)cc1 (stereo not drawn) | 17.5 |
| CCN(CC)CCNC(=O)c1ccc(NC(=O)c2ccc(C(=O)c3ccccc3)cc2)cc1 | 2.73 |
| CCc1cc(C(=O)N2CCCC(C(=O)c3ccc(OC)c(F)c3)C2)n(C)n1 (stereo not drawn) | -14 |
| O=C(O)c1ccc2c(=O)n3c(nc2c1)/C(=C/c1ccccc1Br)CC3 | 8.85 |
| COc1ccc(-n2c(SCC(=O)NCc3ccco3)nc3c([nH]c4ccccc43)c2=O)cc1 | 14.1 |
| CC(=O)c1ccc(N2C(=O)[C@@H]3C(C(=O)CCN4C(=O)c5ccccc5C4=O)=NN[C@@H]3C2=O)cc1 | -4.19 |
| Cc1ccccc1OCC(=O)Nc1ccccc1N1CCCCC1 | 13 |
| C[C@H](NC(=O)c1nc[nH]c1C(=O)NCC(=O)OC(C)(C)C)C(=O)OC(C)(C)C | 11.9 |
| COc1ccc(OC)c(NC(=O)Cc2coc3cc(C)cc(C)c23)c1 | 4.9 |
| CCCn1c(NC(=O)CN2C(=O)NC3(CCCC3)C2=O)nc2ccccc21 | 15.8 |
| CC1=C(C(=O)Nc2ccccc2)C(c2ccccc2[N+](=O)[O-])NC(=O)N1 (stereo not drawn) | 0.0053 |
| Cc1ccc(-n2c(C(C)C)nc3oc4ccccc4c(=O)c3c2=O)cc1 | 9.75 |
| Cc1ccc(-c2c[n+](CC(=O)Nc3cc(=O)n(C)c(=O)n3C)c3n2CCC3)cc1.[Cl-] | 9.69 |
| COc1ccccc1NC(=O)NCCC1=CCCCC1 | 7.64 |
| CCCS(=O)(=O)c1nc(S(=O)(=O)c2ccc(C)cc2)c(N2CC(C)OC(C)C2)s1 (stereo not drawn) | 15.9 |
| COC(=O)c1ccccc1S(=O)(=O)N1CCC(C(=O)N2CCC2)CC1 | 2.77 |
| CC(Sc1nnc(-c2cccs2)n1C1CC1)C(=O)NCC1CCCO1 (stereo not drawn) | 1.72 |

| Structure (SMILES) | hERG current change (%, negative = inhibition) at 1uM [%] |
| --- | --- |
| O=C(CN(C(=O)CCC(=O)Nc1nccs1)c1ccc(F)cc1)NCc1ccccc1 | 26.4 |
| C=C(C)CNC(=S)NNC(=O)c1cc(C)oc1C | 6.78 |
| O=C(Nc1c2c(nc3ccccc13)CCCC2)c1ccccc1Cl | 6.76 |
| O=C1C(=O)N(CCS(=O)(=O)c2ccccc2)c2ccc(Cl)cc21 | 13.3 |
| C#CCOCCOCCOCCNc1nc(N2CCN(C(=O)[C@H](CCC(=O)O)n3cc(C(N)Cc4ccc(O)cc4)nn3)CC2)nc(N2CCN(C(=O)[C@H](CCC(=O)O)n3cc(C(N)[C@H](C)CC)nn3)CC2)n1.Cl (stereo partly drawn) | 18.3 |
| Cc1nn(-c2nnc(NC3CCCCC3)nn2)c(C)c1Br | 15.9 |
| Cc1cc(C)c(O)c(NC(=S)NC(=O)Cc2ccccc2)c1 | 12.8 |
| COc1nsnc1N1CCOCC1 | 7.66 |
| O=C(NCc1ccccc1CN1CCCC1)c1ccc(Cl)c(N2CCCC2=O)c1 | 8.59 |
| O=C(O)CCn1cc(-c2ccc(Cl)cc2)nc1-c1ccc(Cl)nc1 | 12.4 |
| C/C(CC(=O)Nc1ccccn1)=N\NC(=O)c1cnccn1 | 5.98 |
| COCCn1c(SCC(=O)NC2CCCC2)nnc1-c1ccncc1 | 2.28 |
| Cc1nn(-c2ccc(Cl)cc2)c2sc(C(=O)c3c(N)n(C)c(=O)n(C)c3=O)cc12 | 1.16 |
| CC1=C(C(=O)N2CCOCC2)C(c2ccc(Br)cc2)NC(=S)N1c1ccccc1 (stereo not drawn) | 6.05 |
| CN(C)S(=O)(=O)c1cccc(NC(=O)NCCCl)c1 | 8.11 |
| O=C(CCC(=O)N1CCN(C(=O)c2ccco2)CC1)c1ccc(F)cc1 | -24.4 |
| Cc1cc(=O)oc2cc(OCc3nnc(-c4ccccc4Br)o3)ccc12 | 4.02 |
| CC1CN(C(=O)c2c([N+](=O)[O-])cnn2C)CC(C)O1 (stereo not drawn) | 1.78 |
| Cc1cnc(C)c(N2CCC(C(=O)NCc3ccco3)CC2)n1 | 2.16 |
| COCCCn1c(=S)[nH]c2sc3c(c2c1=O)CCCS3 | 19.2 |
| COc1ccc(NC(=O)CN(C)CC(=O)Nc2ccc(N3CCOCC3)cc2)c([N+](=O)[O-])c1 | 13.9 |

Reference: paper PMC4336329 (PLoS ONE, 2015)
